{
  "source": "PubChem BioAssay AID662",
  "about": "(National Center for Advancing Translational Sciences (NCATS), 2007)",
  "note": "The whole screen tested about 71,000 compounds, of which about 1,800 (2.5%) were called active. The shares of active, inactive and inconclusive entries below differ from those in the screen. Calls follow the shape of the dose curve; as a rule, active = well fitted activation curve with a large enough effect in the signal ratio, with a control signal flat (not every such curve was filed as active); inconclusive = small, poorly fitted or top-dose-only effect, or effect the other way, or a change in a side signal; inactive = flat fitted curve, though single readings scatter; the % refers to the signal ratio. Potencies of inconclusive entries are doubtful fits and often do not repeat. Potency is read from the fitted curve at half-maximal effect; tags tell the direction and shape of the fitted curve.",
  "data": [
    {"assay": "Cell signaling CRE-BLA (Fsk stim); as to activity change, negative = inhibition: % of control where 0% means no effect", "details": "CHO CRE-bla reporter (cAMP response element driving beta-lactamase), forskolin EC10, beta-lactamase ratio; activity change, negative = inhibition: at 38.2 µM (top of the series) unless noted", "in_short": "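Modulation of forskolin signalling: compounds in titration series added with EC10 NKH 477 to CHO cells carrying a CRE-driven beta-lactamase reporter, 3 h, 37C. CCF4 FRET ratio (460/530 nm, ex 405 nm) gives %activity and AC50.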", "values": [
      {"smiles": "CSc1ccccc1NC(=O)c1cc(-c2cccs2)on1", "activity change, negative = inhibition": "inconclusive: -2.92%"},
      {"smiles": "N#Cc1nc(-c2ccc(OCc3ccccc3)cc2)oc1N1CCOCC1", "Potency": "inactive"},
      {"smiles": "O=C(Nc1ccccc1)N1CC2(CCN(C(=O)c3cnccn3)CC2)C1", "Potency": "inactive"},
      {"smiles": "COc1ccc(CN(C(=O)CN2C(=O)COc3ccccc32)C2CCCC2)c(OC)c1", "Potency": "inactive"},
      {"smiles": "Cc1ccccc1NC(=O)CSC(N)=O", "activity change, negative = inhibition": "inconclusive: -8.02%"},
      {"smiles": "CCn1c2ccccc2c2cc(NC(=O)CSc3nnc(C4CC4)n3Cc3ccco3)ccc21", "activity change, negative = inhibition": "inconclusive: -13.6%"},
      {"smiles": "COCc1nc(-c2cc(OC)c(OC)c(OC)c2)no1", "Potency": "inconclusive: 10 µM [rising, partial curve]"},
      {"smiles": "Cc1cc(C)n(S(=O)(=O)c2cc(C(=O)O)c(Cl)cc2Cl)n1", "Potency": "inactive"},
      {"smiles": "CCOc1ccc(OCC)c(NC(=O)C(NS(=O)(=O)c2ccc3c(c2)oc(=O)n3C)C(C)C)c1", "note": "(configuration not stated)", "Potency": "inconclusive: 31.6 µM [falling, single point]"},
      {"smiles": "COc1ccc(-c2nnc(CSc3ncnc4sc5c(c34)CCC5)o2)cc1OC", "Potency": "active: 2.51 µM"},
      {"smiles": "Cc1cc(SCC(=O)N2CCC(c3noc4ccc(F)cc34)CC2)nc2ccccc12", "Potency": "inconclusive: 3.16 µM [rising, full curve]"},
      {"smiles": "COCCn1nnnc1CN(Cc1cccnc1)Cc1cc2cc(OC)ccc2[nH]c1=O", "Potency": "inactive"},
      {"smiles": "CCc1ccc(CNC(=O)CN2C(=O)COc3ccccc32)cc1", "activity change, negative = inhibition": "inconclusive: -7.44%"},
      {"smiles": "Cc1cc(-c2ccccc2)n2ncc(C#N)c2n1", "Potency": "inconclusive: 10 µM [rising, partial curve]"},
      {"smiles": "O=S(=O)(c1cccc(-c2csc(-c3cccnc3)n2)c1)N1CCCCC1", "Potency": "inconclusive: 3.98 µM [rising, single point]"},
      {"smiles": "COc1cccc(C(=O)Nc2ccc(-c3nc4ccccc4o3)c(O)c2)c1", "Potency": "inactive"},
      {"smiles": "COc1nc(-c2ccccc2)ccc1-c1noc(-c2cccnc2)n1", "Potency": "inconclusive: 3.16 µM [rising, single point]"},
      {"smiles": "O=C(c1cccc(Cl)c1)N1CCN(Cc2ccccc2F)CC1", "activity change, negative = inhibition": "inconclusive: -0.0969%"},
      {"smiles": "CN(C)c1cc(-c2cccc(NS(C)(=O)=O)c2)ncn1", "activity change, negative = inhibition": "inconclusive: 26.8%"},
      {"smiles": "Cc1cc(NC(=O)COc2cccc(C)c2C)no1", "Potency": "inactive"},
      {"smiles": "COc1ccc(C2CCCN2C(=O)Nc2cccc(C(C)=O)c2)cc1OC", "note": "(configuration not stated)", "Potency": "inconclusive: 0.251 µM [rising, single point]"},
      {"smiles": "C=C(C)CC1Nc2ccccc2NC1CC(=C)C", "note": "(configuration not stated)", "Potency": "inconclusive: 25.1 µM [rising, single point]"},
      {"smiles": "COc1ccc(CC(=O)Nc2cc(Cl)ccc2O)cc1", "activity change, negative = inhibition": "inconclusive: 22.6%"},
      {"smiles": "COc1cc(C)c(CN2CCCCC2CO)cc1C", "note": "(configuration not stated)", "Potency": "inconclusive: 0.631 µM [rising, single point]"},
      {"smiles": "CCn1nc(C(=O)OCc2c(C)noc2C)c2ccccc2c1=O", "Potency": "active: 10 µM"},
      {"smiles": "C=CCSc1nc2c(c(=O)[nH]1)C(C(C)C)C(C#N)=C(N)O2", "note": "(configuration not stated)", "Potency": "inconclusive: 12.6 µM [rising, single point]"},
      {"smiles": "COc1ccc2[nH]cc(CCNc3ncncc3-c3ccccc3C(F)(F)F)c2c1", "Potency": "inactive"},
      {"smiles": "Oc1oc(-c2ccco2)nc1C=Nc1ccccc1", "activity change, negative = inhibition": "inconclusive: -13.3%"},
      {"smiles": "CCOC(=O)c1[nH]nc2c1C(=O)N(Cc1ccccc1)C2=O", "activity change, negative = inhibition": "inconclusive: -29.1%"},
      {"smiles": "CN(C)c1ccc(-c2cc(NCc3cccnc3)ncn2)cc1", "activity change, negative = inhibition": "inconclusive: 22.6%"},
      {"smiles": "O=C(c1ccc(Cl)cc1)C1C2C(=O)N(c3ccccc3)C(=O)C2C2CCCN21", "note": "(configuration not stated)", "activity change, negative = inhibition": "inconclusive: -27.8%"},
      {"smiles": "CC(C)NC[C@@H](O)COc1ccc(CCOCC2CC2)cc1", "Potency": "inactive"},
      {"smiles": "O=C(c1cc2nc(-c3ccc(F)cc3)cc(C(F)(F)F)n2n1)N1CCCC1", "Potency": "inconclusive: 3.98 µM [rising, partial curve]"},
      {"smiles": "COc1ccc(Cl)cc1NC(=O)c1cnc2sccn2c1=O", "Potency": "inconclusive: 12.6 µM [rising, single point]"},
      {"smiles": "CCC(CC)COC(=O)C(C#N)c1nc2ccccc2nc1N1CCN(CC)CC1", "note": "(configuration not stated)", "Potency": "inconclusive: 25.1 µM [rising, single point]"},
      {"smiles": "Cc1ccccc1OCc1nc(-c2ccc(NC(=O)c3ccc4c(c3)OCO4)cc2)no1", "activity change, negative = inhibition": "inconclusive: -10.8%"},
      {"smiles": "Cc1cccc(CNc2ncncc2-c2cccc(C#N)c2)c1", "Potency": "inactive"},
      {"smiles": "COc1ccc(C)cc1-n1nnnc1SCc1cc(=O)n2cc(C)ccc2n1", "Potency": "inactive"},
      {"smiles": "N#Cc1cnc(SCCc2ccccc2)nc1N", "Potency": "inconclusive: 12.6 µM [rising, partial curve]"},
      {"smiles": "CC(C)n1c(SCC(=O)N2CCCC2)nc2c1c(=O)n(C)c(=O)n2C", "Potency": "inconclusive: 12.6 µM [rising, partial curve]"},
      {"smiles": "CCOC(=O)C1CCN(C(=O)C2(NC(=O)Nc3ccccc3Cl)CCCCC2)CC1", "activity change, negative = inhibition": "inconclusive: -10.6%"},
      {"smiles": "CCOC(=O)C1CCN(C(c2cc(OC)c(OC)c(OC)c2)c2sc3nc(C)nn3c2O)CC1", "note": "(configuration not stated)", "Potency": "inconclusive: 1 µM [rising, full curve, poor fit]"},
      {"smiles": "O=[N+]([O-])c1ccc(S(=O)(=O)Cc2ccccc2)c([N+](=O)[O-])c1", "Potency": "inconclusive: 1 µM [falling, partial curve]"},
      {"smiles": "Cn1c(C(=O)NCc2ccco2)cc2c(=O)[nH]c3ccccc3c21", "Potency": "inconclusive: 10 µM [rising, partial curve]"},
      {"smiles": "Cc1cccn2c(=O)c3cc(C(=O)N4CCc5ccccc5C4)n(C)c3nc12", "Potency": "inconclusive: 12.6 µM [rising, partial curve]"},
      {"smiles": "Cc1cc(=O)[nH]c2cc3oc4ccccc4c3cc12", "Potency": "inconclusive: 2.51 µM [rising, single point]"},
      {"smiles": "COc1cccc(C2=NOC(C(=O)NC(C)(C)C)C2)c1", "note": "(configuration not stated)", "activity change, negative = inhibition": "inconclusive: -1.58%"},
      {"smiles": "Cc1cccc(NC(=O)CSC(N)=O)c1C", "activity change, negative = inhibition": "inconclusive: -13.2%"},
      {"smiles": "COC(=O)C1(C)C=CCN1C(=O)c1ccccc1", "note": "(configuration not stated)", "Potency": "inactive"},
      {"smiles": "COC(=O)N1[C@H](C)C=C[C@]1(Cc1ccccc1)C(=O)NCCCNc1ncc(C(F)(F)F)cc1Cl", "Potency": "inactive"},
      {"smiles": "COc1ccc(CCNS(=O)(=O)c2cccc(S(=O)(=O)N3CCCC3)c2)cc1OC", "activity change, negative = inhibition": "inconclusive: 21.5%"},
      {"smiles": "COc1ccc(N2C(=O)CSC2c2cccc(F)c2)c(OC)c1", "note": "(configuration not stated)", "activity change, negative = inhibition": "inconclusive: 13.8%"}
    ]}
  ]
}
